From publication PMC12136788
The list shows a part of the results.

B1: 52142372_52143545_1010_CDS_ENSG00000112118_ENST00000229854|human|control|control (ssRNA)
RNA: GGGAGUUCUACAGUCCGACGAUCAUUUUCUAGGUCUCGUUCCACCCCUCCCAAGAGCAAGCAGAGGAUUGCUUUCUUGACAUAGUCAUGCCCAUGGAUACUUGGGGCCAAUGACUUGGCCAGCUGGUCAAAGAUAUCCUUGGACAACAGAGGAUUGAGCAUCA
B2: chr16:45382771:45382772:-_ENSMUSG00000022661_ENSMUST00000163230|mus_mus|mus_mus_mus_hu_True|88_98 (ssRNA)
RNA: GGGAGUUCUACAGUCCGACGAUCCUGGGUCAUGUUAUGGGCCCAAUGGAUAGGGAGGGCAUGCUUCUCAAAAAAUGUGAGCUAUUGUCUAAGACUAACAAUAUUUAUCUAGCUAUAAAAAUAAGUUAAAUGAAUAAGUUAAGACAACAGAGGAUUGAGCAUCA
B3: 153595797_153595917_4147_3pUTR_ENSMUSG00000027479_ENSMUST00000028981|mouse|control|control (ssRNA)
RNA: GGGAGUUCUACAGUCCGACGAUCAGAGUGUGAGGCCCUUCAGCCAACAUCAGAGCCCUUGAUUUGCAAACAAGAAAAAAACAAAAUAAAGCAAAGUAAGAGGUGGAUUAGAACCCUCACAUCUGAUGUCUCACUGACACGAUACAACAGAGGAUUGAGCAUCA
B4: chr19:36179134:36179135:+_ENSMUSG00000024800_ENSMUST00000025714|mus_hu|motif|central (ssRNA)
RNA: GGGAGUUCUACAGUCCGACGAUCUUGUUUAUCACUUACACAAAGGAGAAAUAACCAGUCUUUCUCUCUUAAAGUACAUCGGAAUUCAUUAAGCUGGCAGCCUUUUAAAAAGAUGCUUCACUAGGUUUCGUUUGUUGUUUUAAUCAACAGAGGAUUGAGCAUCA
B5: chr17:21094002:21094003:+_ENSMUSG00000007564_ENSMUST00000007708|mus_mus|motif|central (ssRNA)
RNA: GGGAGUUCUACAGUCCGACGAUCCAUGUAGCGAACACGCCAAGACUUGUCCUCAGCAGCCUGUCGCAAGGUGGGCAUCACGGAGGCCUCCAGGUCCUCCUGUGGCAGAAGCUGGGCAAUAUUCACACAUGCCUCCACUGCCAGCAACAGAGGAUUGAGCAUCA
B6: chr2:217001844:217001845:+_ENSG00000079246_ENST00000392132|hu_hu|hu_hu_hu_mus_False|18_18 (ssRNA)
RNA: GGGAGUUCUACAGUCCGACGAUCACCAACUUGAGGAUUAGAUCUUUUGUCAUAAGCAUAUCGGACGAUGGCGACCAUGUUUAACUCAUCCAAAGCAUGAACGAGAGAGGAAAGGGCAACUGCAGCUGCCUCAUCAUCCUUUGCCAACAGAGGAUUGAGCAUCA
B7: chr7:54106310:54106311:+_ENSMUSG00000063229_ENSMUST00000048209|mus_hu|FALSE|FALSE (ssRNA)
RNA: GGGAGUUCUACAGUCCGACGAUCCCUUUCCCCCAUUAGGUAACGGAAUCGGGCUGAAUCCAGAUUGCAACCGCUUCCAAUAACACGGUUUUUGGGAAAACCACUUAUCUUCCAAGCCACGUAGGUCAAGAUAUCCACUGGAUUCAACAGAGGAUUGAGCAUCA
B8: chr14:76904430:76904431:+_ENSMUSG00000022010_ENSMUST00000022587|mus_mus|mus_mus_mus_hu_True|38_48 (ssRNA)
RNA: GGGAGUUCUACAGUCCGACGAUCUGCAGCCAAAAACACCCUCGUGGAAAAAAAGAGGGAACACCAGCAGCCUUGUAUAAGCUAGAUAAAACCGCCUAGCUGUCUGCAGCCCAGGGAGAAACAGAAAACGGCAGCCCUAAUUUACAACAGAGGAUUGAGCAUCA
B9: chr1:63797873:63797874:+_ENSMUSG00000025962_ENSMUST00000128621|mus_mus|motif|central (ssRNA)
RNA: GGGAGUUCUACAGUCCGACGAUCAUCCUCUGGGGUGGCAUGAAUUUAAACAGUAAACAGACUUAGGAACACACAGCACUGCGGCUCUCUGCAUGUUUGUGGCAGAACUUGCAUCUACAUCAGAAAAUGAAAAUACUUGGGUCCCAACAGAGGAUUGAGCAUCA
B10: chr12:48362563:48362564:+_ENSG00000134291_ENST00000256686|hu_hu|hu_hu_hu_mus_False|18_68 (ssRNA)
RNA: GGGAGUUCUACAGUCCGACGAUCUCCGUCAAGCCCUUCGAUAGACCCUUGCGGGGGAAACUGUAAUAAUUCUAACUGGGGAAGGAAAAGAAACGCCAAAAACUUUCCAAAAAGCGGUUCAAAAAGCAGGCGGGAGGGGGAGGUCAACAGAGGAUUGAGCAUCA
B11: chr7:3608459:3608460:+_ENSMUSG00000035632_ENSMUST00000038913|mus_mus|FALSE|FALSE (ssRNA)
RNA: GGGAGUUCUACAGUCCGACGAUCGCUGGGCGUUGGAGAACUGGGGGGAUUUACAGGCAGUGGCACCAAGAGGCUGGGUCCCCCCGAGUUAUUCCCUGAGCCUGAAGCCACAUUCCCAGCCCCUGAUGGGGCUGCCGUACUGGACAACAGAGGAUUGAGCAUCA
B12: chr5:156566167:156566168:-_ENSG00000155868_ENST00000420343|hu_mus|FALSE|FALSE (ssRNA)
RNA: GGGAGUUCUACAGUCCGACGAUCAAGAUCUUCUAGCUUUUCUUCUCGUUUUAUACUCCCAGGACUUCUUAUUAAGAUGUCUAAAAGGUCUAAGAAAUUAAUCAGUAUAGACAUAUUGAGUUUUCUCAGCUCUUUCUUAUGAUCCAACAGAGGAUUGAGCAUCA
B13: chr4:138660994:138660995:-_ENSMUSG00000050608_ENSMUST00000143971|mus_hu|motif|central (ssRNA)
RNA: GGGAGUUCUACAGUCCGACGAUCGAAAUCAUGCUGACAGUUGGAAUAAGCCAUUCCUAAUCCCAUGCCAGAACCGAAGGCGGAUGGCCACAUUCUUCUUUUAAAGAAGGUAAGUGAGAAAACAAUUCCUAAUCCAAAACCAGUCAACAGAGGAUUGAGCAUCA
B14: chr8:26227902:26227903:+_ENSG00000221914_ENST00000315985|hu_mus|motif|central (ssRNA)
RNA: GGGAGUUCUACAGUCCGACGAUCGAGAAUGCCAGCCUAAUUCACUUUGUCUUGAAAUAUAUACAGAUUGUUUGUAGUUGCGGCAGCAAUGAUGUUUUCCUUGGGAUGCCAGGCUGUAUGAAGGAUUUUCUUGUUGAAGUCUAGCAACAGAGGAUUGAGCAUCA

Target: T1, UNK ZnF1-3 (human, UniProt Q9C0B0 31-174)
T1 sequence: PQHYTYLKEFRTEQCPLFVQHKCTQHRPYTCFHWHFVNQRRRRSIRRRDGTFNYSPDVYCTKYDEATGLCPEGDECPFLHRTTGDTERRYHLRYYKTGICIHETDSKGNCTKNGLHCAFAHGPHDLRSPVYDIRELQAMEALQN
Assay: nsRBNS (natural sequence RNA bind-n-seq); RBNS binding buffer (assumed for nsRBNS): 25 mM Tris pH 7.5, 150 mM KCl, 3 mM MgCl2, 0.01% Triton X-100, 500 ug/ml BSA, 20 U/ml SUPERase-In, 4 C; UNK is unkempt and MSI1 is Musashi-1; names of the RNAs are library labels; protein concentration not given here; high values mean tight binding

| Binder | binding signal [enrichment R] |
| --- | --- |
| B1 | 1.14 |
| B2 | 0.965 |
| B3 | 1.32 |
| B4 | 0.799 |
| B5 | 0.622 |
| B6 | 1.92 |
| B7 | 0.863 |
| B8 | 2.53 |
| B9 | 1.44 |
| B10 | 2.86 |
| B11 | 0.668 |
| B12 | 0.416 |
| B13 | 1.09 |
| B14 | 1.24 |
